The target of assay [1] is T1, GFP-Flag-tagged ID3 (inhibitor of DNA-binding 3), wild type (human) (UniProt Q02535).
T1 sequence: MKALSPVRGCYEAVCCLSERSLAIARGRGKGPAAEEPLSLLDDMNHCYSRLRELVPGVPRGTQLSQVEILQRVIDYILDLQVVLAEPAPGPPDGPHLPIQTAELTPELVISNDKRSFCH
Nature of the assay: co-IP; IP of Flag-tagged ID3 (wild type, S65A, S65E) with anti-Flag magnetic beads from 1.5-2 mg nuclear lysate, overnight at 4°C; Western blot; untreated and after irradiation with 10 Gy (15 or 60 min).

The chains behind the UniProt entries cited, without tags or fusion partners.
UniProt Q14676: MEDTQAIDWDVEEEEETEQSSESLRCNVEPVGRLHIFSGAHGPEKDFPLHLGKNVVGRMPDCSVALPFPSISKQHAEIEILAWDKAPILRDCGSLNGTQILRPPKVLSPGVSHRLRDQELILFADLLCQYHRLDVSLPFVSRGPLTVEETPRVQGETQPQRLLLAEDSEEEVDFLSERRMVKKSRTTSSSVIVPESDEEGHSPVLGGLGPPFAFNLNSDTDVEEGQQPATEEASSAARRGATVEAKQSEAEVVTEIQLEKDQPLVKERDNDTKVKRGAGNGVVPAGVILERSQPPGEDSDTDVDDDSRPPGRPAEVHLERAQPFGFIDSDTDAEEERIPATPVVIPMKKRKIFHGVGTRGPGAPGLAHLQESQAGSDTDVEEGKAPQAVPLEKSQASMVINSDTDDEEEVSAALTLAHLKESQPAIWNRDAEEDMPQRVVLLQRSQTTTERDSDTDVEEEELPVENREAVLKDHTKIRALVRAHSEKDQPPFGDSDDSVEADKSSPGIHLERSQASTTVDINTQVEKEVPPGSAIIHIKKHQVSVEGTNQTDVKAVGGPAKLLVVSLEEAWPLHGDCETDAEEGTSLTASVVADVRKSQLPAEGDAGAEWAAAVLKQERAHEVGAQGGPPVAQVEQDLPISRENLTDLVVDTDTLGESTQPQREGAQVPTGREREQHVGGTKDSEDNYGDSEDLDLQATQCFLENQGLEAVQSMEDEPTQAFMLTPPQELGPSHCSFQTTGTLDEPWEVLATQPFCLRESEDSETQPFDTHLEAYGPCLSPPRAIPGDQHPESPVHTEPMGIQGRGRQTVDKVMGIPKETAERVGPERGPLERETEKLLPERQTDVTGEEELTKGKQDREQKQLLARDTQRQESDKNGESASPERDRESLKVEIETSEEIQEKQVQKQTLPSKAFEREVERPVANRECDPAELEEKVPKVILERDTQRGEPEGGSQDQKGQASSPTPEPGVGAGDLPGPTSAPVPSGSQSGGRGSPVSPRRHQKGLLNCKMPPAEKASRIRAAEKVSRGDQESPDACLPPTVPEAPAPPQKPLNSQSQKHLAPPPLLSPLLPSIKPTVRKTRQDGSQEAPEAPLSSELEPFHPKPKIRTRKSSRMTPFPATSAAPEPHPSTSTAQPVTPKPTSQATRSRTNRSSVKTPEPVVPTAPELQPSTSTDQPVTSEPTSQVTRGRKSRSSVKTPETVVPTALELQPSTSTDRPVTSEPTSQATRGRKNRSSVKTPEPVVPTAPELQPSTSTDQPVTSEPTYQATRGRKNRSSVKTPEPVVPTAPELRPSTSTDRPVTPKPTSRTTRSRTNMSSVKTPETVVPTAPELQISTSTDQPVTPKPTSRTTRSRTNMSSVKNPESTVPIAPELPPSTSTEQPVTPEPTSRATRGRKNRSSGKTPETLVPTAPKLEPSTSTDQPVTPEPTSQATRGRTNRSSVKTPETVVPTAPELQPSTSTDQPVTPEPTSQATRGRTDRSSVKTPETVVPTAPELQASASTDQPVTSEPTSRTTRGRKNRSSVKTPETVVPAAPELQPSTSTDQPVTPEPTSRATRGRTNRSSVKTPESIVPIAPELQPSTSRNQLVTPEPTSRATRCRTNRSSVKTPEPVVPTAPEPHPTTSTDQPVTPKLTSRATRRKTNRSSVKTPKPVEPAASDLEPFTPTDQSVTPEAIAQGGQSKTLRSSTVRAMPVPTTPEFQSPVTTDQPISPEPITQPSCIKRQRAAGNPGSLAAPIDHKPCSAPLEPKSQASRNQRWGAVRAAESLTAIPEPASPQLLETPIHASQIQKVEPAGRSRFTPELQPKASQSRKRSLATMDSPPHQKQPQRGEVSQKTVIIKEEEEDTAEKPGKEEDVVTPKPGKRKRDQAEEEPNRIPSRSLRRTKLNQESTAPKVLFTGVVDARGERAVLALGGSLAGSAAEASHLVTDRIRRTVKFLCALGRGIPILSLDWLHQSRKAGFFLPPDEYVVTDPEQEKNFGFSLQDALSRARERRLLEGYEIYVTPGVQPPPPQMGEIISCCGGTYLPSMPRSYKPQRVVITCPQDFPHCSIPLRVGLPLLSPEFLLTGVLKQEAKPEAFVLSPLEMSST
UniProt O60934: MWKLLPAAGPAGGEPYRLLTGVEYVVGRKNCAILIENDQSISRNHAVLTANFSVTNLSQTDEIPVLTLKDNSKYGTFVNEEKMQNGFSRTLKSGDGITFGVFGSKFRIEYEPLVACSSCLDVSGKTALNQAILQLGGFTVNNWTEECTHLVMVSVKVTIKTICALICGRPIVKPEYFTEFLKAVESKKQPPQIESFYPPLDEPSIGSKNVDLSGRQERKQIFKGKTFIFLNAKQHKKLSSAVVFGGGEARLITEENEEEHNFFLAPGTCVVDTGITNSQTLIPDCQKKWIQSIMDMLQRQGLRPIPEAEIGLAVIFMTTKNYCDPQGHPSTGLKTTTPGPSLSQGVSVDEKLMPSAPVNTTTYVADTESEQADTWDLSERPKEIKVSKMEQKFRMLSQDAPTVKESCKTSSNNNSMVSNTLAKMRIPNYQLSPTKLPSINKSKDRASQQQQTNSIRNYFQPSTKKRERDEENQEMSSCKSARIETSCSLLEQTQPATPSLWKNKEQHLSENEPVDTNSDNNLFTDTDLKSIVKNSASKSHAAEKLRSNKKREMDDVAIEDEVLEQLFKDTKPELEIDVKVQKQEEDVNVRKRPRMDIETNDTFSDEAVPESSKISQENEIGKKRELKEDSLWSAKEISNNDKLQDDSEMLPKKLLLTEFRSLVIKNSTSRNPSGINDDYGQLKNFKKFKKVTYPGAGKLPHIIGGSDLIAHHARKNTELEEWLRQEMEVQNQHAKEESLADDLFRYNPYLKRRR
UniProt Q92878: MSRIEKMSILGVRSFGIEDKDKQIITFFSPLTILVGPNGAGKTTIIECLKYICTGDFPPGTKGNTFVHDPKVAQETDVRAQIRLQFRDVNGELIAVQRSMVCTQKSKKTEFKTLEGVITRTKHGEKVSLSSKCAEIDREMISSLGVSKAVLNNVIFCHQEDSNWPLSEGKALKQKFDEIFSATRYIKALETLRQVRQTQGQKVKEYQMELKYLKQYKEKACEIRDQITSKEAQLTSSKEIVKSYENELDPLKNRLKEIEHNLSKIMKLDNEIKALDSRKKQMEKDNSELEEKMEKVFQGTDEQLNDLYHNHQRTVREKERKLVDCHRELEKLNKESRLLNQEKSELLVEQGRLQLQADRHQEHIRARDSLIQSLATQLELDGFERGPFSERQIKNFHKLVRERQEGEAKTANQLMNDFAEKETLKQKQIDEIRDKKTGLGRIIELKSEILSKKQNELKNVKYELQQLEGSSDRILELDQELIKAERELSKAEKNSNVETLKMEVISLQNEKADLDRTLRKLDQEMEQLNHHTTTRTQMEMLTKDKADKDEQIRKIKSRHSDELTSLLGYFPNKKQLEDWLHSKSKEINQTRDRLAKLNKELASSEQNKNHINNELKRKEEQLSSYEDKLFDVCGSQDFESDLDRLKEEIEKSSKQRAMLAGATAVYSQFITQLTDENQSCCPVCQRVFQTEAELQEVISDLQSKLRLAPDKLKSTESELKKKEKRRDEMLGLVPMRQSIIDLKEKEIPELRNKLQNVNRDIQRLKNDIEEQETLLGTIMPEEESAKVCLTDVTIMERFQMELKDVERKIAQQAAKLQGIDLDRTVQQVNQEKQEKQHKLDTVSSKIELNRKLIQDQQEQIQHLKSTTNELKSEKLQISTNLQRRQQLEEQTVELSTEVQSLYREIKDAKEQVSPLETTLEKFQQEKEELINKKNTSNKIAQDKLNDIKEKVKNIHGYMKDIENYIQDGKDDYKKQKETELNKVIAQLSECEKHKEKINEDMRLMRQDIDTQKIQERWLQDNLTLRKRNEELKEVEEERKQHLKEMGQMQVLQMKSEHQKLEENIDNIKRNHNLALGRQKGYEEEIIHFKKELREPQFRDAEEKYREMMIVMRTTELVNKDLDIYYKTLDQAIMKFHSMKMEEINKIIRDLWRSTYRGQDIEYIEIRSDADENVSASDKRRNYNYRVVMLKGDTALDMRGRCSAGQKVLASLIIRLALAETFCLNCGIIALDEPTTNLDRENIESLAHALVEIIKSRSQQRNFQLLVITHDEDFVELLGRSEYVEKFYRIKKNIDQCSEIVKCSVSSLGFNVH
UniProt Q06609: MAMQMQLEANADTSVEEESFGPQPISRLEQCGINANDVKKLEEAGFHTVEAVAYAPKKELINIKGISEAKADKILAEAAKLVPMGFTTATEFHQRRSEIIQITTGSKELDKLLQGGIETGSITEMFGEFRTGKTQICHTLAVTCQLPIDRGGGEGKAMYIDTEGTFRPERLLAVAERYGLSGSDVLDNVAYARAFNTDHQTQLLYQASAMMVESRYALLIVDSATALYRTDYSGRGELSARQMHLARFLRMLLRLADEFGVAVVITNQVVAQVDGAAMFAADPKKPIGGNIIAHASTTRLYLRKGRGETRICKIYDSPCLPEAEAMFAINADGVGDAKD
UniProt P46063: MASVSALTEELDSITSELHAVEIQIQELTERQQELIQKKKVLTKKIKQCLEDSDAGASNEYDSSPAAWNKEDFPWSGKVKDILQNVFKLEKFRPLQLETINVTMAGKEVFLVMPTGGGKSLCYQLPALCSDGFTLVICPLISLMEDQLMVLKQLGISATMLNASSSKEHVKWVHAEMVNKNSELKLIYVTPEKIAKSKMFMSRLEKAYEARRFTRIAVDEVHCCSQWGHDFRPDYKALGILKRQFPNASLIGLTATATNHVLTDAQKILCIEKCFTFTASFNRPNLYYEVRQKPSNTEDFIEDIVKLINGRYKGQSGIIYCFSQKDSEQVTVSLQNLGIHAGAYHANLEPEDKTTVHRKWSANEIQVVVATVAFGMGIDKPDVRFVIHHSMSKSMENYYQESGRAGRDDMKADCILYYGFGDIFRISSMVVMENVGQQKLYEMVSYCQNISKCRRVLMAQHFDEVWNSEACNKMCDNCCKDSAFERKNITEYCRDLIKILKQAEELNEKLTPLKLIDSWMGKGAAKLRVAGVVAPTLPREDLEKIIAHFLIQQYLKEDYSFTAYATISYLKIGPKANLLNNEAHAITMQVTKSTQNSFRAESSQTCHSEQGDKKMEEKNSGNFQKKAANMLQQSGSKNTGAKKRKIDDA

In assay [2] the target is T2, phospho-dead ID3 (S65A), Flag-tagged (human) (UniProt Q02535).
T2 sequence: T1 sequence with S65A
The description is as above.

For assay [3], the target named is T3, phospho-mimic ID3 (S65E), Flag-tagged (human) (UniProt Q02535).
T3 sequence: T1 sequence with S65E
The assay is described as above.

Assay [4] concerns the target T4, endogenous ID3 (human (endogenous in human cell lines; line not named)) (UniProt Q02535).
T4 sequence: T1 sequence
Nature of the assay: co-IP; IP of endogenous ID3 with agarose beads conjugated with mouse anti-ID3, Western blot; before and after irradiation; also after knockdown of MDC1 prior to irradiation (no influence); DMSO or 10 uM ATM inhibitor KU55933 prior to irradiation reduced the co-IP (Figure 1H; legend does not tell which ID3). On the technique in general: Immunoblotting shows a protein as a band on a membrane.

Assay [5] has as its target T5, ID3 (form not told: Supplementary Figures S2D and S5L) (human) (UniProt Q02535).
T5 sequence: T1 sequence
Nature of the assay: co-IP; additional co-immunoprecipitation of other DNA repair proteins (Supplementary Figure S2D); bait and form of ID3 not told.

Residue numbers refer to the chain shown, from its start. Results are given in words; binding and its absence hold for the method and conditions named. In cells and extracts the contact can be indirect. Some entries that bind do so weakly or less than the wild type. For some assays here: Sequences can lack the tags named with a protein.

As to MDC1 (from UniProt Q14676 1-2089), in assay [1], the binding result is on record as “binds”.

Turning to NBS1 (from UniProt O60934 1-754), the binding result is given as “no binding” in assay [2], “binds” in assay [1], “binds” in assay [3] and “binds” in assay [4].

As for RAD50 (from UniProt Q92878 1-1312), the binding result in assay [2] is reported as “no binding”; in assay [1], “binds”; in assay [3] it was “binds”; in assay [4], “binds”.

In the case of RAD51 (from UniProt Q06609 1-339), in assay [5], the binding entry was “no binding”.

Regarding “RECQL helicase (from UniProt P46063 1-649)”, the binding entry is listed as “no binding” in assay [2], “binds” in assay [1], “binds” in assay [3] and “binds” in assay [4].

The values above are taken from article PMC8599806.
